# Among all 310,000 compounds or so, about 2,200 (0.71%) showed an effect of 50% or more. Effects have a minus sign here. The list shows a part of the results.
# Biological target: human ether-à-go-go-related gene (hERG) potassium channel (human, UniProt Q12809)
# Experiment: primary screen, population patch clamp on CHO cells stably expressing hERG
# Sequence of human ether-à-go-go-related gene (hERG) potassium channel (Q12809 whole entry, looked up): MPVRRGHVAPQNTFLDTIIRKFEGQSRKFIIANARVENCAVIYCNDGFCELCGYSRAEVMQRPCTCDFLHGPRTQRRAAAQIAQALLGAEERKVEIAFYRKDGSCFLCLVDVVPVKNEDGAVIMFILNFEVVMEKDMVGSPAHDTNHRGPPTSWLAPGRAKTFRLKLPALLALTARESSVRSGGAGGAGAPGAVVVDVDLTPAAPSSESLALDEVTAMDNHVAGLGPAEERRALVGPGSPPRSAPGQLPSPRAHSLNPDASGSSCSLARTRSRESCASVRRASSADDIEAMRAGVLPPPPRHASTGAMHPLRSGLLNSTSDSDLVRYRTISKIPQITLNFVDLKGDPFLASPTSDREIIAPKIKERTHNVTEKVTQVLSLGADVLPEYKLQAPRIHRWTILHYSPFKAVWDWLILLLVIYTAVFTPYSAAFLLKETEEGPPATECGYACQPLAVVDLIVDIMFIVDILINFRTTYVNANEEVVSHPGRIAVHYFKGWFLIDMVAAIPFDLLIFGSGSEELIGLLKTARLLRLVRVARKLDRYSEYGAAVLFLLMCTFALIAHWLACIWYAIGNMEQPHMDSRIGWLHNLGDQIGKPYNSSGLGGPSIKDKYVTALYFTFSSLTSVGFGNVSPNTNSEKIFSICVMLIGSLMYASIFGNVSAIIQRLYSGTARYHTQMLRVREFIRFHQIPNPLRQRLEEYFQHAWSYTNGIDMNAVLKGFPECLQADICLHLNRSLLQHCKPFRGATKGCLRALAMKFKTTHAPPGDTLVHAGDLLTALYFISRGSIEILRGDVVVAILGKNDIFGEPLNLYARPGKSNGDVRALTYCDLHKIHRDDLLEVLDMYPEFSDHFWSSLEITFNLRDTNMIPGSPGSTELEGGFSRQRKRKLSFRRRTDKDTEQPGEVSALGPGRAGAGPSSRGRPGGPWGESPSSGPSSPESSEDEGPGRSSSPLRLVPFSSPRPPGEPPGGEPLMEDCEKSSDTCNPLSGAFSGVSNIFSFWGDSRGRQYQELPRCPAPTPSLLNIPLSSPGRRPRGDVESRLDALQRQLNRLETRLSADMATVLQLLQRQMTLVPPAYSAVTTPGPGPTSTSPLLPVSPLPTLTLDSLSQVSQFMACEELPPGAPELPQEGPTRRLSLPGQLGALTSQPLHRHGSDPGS
row,SMILES,"hERG current change (%, negative = inhibition) at 1uM [%]"
1,COc1ccccc1C(=O)Nc1ccc(S(=O)(=O)Nc2nccs2)cc1,13.8
2,CC(NC(=O)CN(C)Cc1cccc(Cl)c1)c1ccccc1 (stereo not drawn),4.99
3,Cn1cccc1/C=N\NC(=O)C1COc2ccc(C(C)(C)C)cc2O1 (stereo not drawn),11.7
4,CC1CC(C)CN(C(=O)Cn2c(=O)n(CCCCC(=O)NCc3ccco3)c(=O)c3ccccc32)C1 (stereo not drawn),9.92
5,O=C(c1nsnc1-c1ccccc1O)N1CCCCC1,8.04
6,O=C(/C=C/c1cccc(F)c1)Nc1nccs1,14.1
7,O=C(COc1ccc(Br)cc1)OCc1nnc(-c2ccccc2)o1,15
8,COCCNc1nnc(SCC(=O)Nc2cc(-c3ccccc3)nn2-c2ccccc2)s1,-8.14
9,CCCCOc1[nH]c2nc(-c3ccco3)n(Cc3ccco3)c(=N)c2c1C#N,-42.2
10,COc1ccnc(Oc2ccc(Cl)cc2)c1C#N,-10.3
11,COc1ccc(N2CCN(C(=O)CN3CCN(C(c4ccccc4)c4ccccc4)CC3)CC2)cc1.Cl,4.35
12,O=c1[nH]c(CN2CCN(c3ccccn3)CC2)nc2c(Br)cc(Br)cc12,-4.19
13,CC(C)C[C@H](N)C(=O)N1CCC(C(=O)N[C@H](C(=O)NCc2ccc(F)cc2)C(C)C)CC1,-4.97
14,Cc1ccc(S(=O)(=O)CC(=O)c2cc3cccc(C)c3oc2=O)cc1,6.82
15,Cc1ccc(CNC(=O)c2nnn(CC(=O)Nc3cccc(C)c3C)c2N)cc1,14.4
16,COc1ccc(CNS(=O)(=O)c2ccc(F)c(C(=O)Nc3ccc(OC)cc3)c2)cc1,6.72
17,CC1=Nc2ccccc2/C1=C\c1nc(-c2ccc(C(F)(F)F)cc2)oc1O,11.8
18,CCCOc1ccc([N+](=O)[O-])cc1C1NC(=S)NC(c2ccccc2)=C1C(=O)OCC (stereo not drawn),11.7
19,CCCCOC(=O)C1CCCC(C(=O)OCCCC)N1.Cl (stereo not drawn),15.7
20,Cc1ccc2c(c1)c(C)cc(=O)n2CCC(=O)O,15.5
21,O=C(NCCN1CCOCC1)/C(=C/c1ccco1)NC(=O)c1ccccc1,-16
22,COCCn1nnnc1SCC(=O)NCc1ccc2c(c1)OCO2,18

row,SMILES,"hERG current change (%, negative = inhibition) at 1uM [%]"
1,C=CCNC(=O)C1(S(=O)(=O)c2ccccc2)CC=CC1,4.76
2,COCCNc1c2c(c(C#N)c3nc4ccccc4n13)CCCC2,0.212
3,Cc1ccc(C(c2nnnn2C2CCCC2)N2CCN(c3nc4ccccc4s3)CC2)cc1 (stereo not drawn),12.7
4,COc1ccc(N2CCN(C(=O)Cn3cnc4sc(C)c(S(=O)(=O)N5CCOCC5)c4c3=O)CC2)cc1,4.47
5,CCOC(=O)c1ccc(NC(=S)NCC(O)c2ccccc2)cc1 (stereo not drawn),-3.49
6,CC(CC(=O)Nc1ccc(C(N)=O)cc1)c1ccccc1 (stereo not drawn),14.2
7,CCC1COCCS(=O)(=O)N1Cc1ccc(C)cc1 (stereo not drawn),6.27
8,c1ccc(Cc2nnc3n2N=C(c2ccccc2)CS3)cc1,3.04
9,CCOC(=O)CSc1nnc(SCCN2C(=O)c3ccccc3C2=O)s1,0.0774
10,CCC(=O)OC1(C)C(=O)C2=COC(c3ccc(OC)cc3)=CC2=C(Br)C1=O (stereo not drawn),5.4
11,COc1ccc(CN2C(=NC(=O)c3ccccc3)SC3CS(=O)(=O)CC32)cc1 (stereo not drawn),21.9
12,CC(=O)C1=C(O)C(=O)N(c2ccc(Br)cn2)C1c1ccccc1F (stereo not drawn),17.2
13,O=C(NCc1cn2ccccc2n1)c1ccco1,14.2
14,CC(O)c1nc2ccccc2n1Cc1nnc(-c2ccc(Cl)cc2)o1 (stereo not drawn),8.11
15,Cc1ccccc1OCC(=O)Nc1ccc2c(c1)OCCO2,0.568
16,O=C(c1cc(-c2ccc(Br)cc2)on1)N1CCOCC1,10.8
17,Cc1c(N2C(=O)CSC23C(=O)Nc2ccccc23)c(=O)n(-c2ccccc2)n1C (stereo not drawn),10.9
18,COc1cc([N+](=O)[O-])cc2sc(NC(=O)C3CC3)nc12,11.3
19,CCCn1c(N2CCN(CC(=O)c3c[nH]c4ccccc34)CC2)nc2c1c(=O)[nH]c(=O)n2C,9.82
20,CCCOc1ccc(-c2c(C(=O)N/N=C/c3cccnc3)nnn2-c2nonc2N)cc1,7.08
21,FC(F)(F)c1cc(NCc2cccs2)n2ncnc2n1,5.9
22,CCN(CC)C(=O)c1ccc(N2C(=O)C3CC=C(Cl)CC3C2=O)cc1 (stereo not drawn),17.4

row,SMILES,"hERG current change (%, negative = inhibition) at 1uM [%]"
1,O=C(Nc1ccccc1)c1c2c(nc3ccccc13)CCCC2,7.4
2,O=C(CCN1C(=O)C2C3C=CC(C4CC34)C2C1=O)Oc1cccc2cccnc12 (stereo not drawn),2.35
3,Cc1noc(C(=O)N2CCN(c3ccccc3)CC2)c1Cl,11.4
4,CCOC(=O)c1ccc(NC(=O)c2cc(C)nc3ccccc23)cc1,14.9
5,CC1CN(C(=O)c2cc3ccccc3oc2=O)CC(C)O1 (stereo not drawn),-4.51
6,CCn1c(SCc2ccc(C#N)cc2)nnc1-c1cccc(Cl)c1,-35.8
7,CC1(C)CC(=O)C(C=NCCN2CCN(C3CC(=O)N(c4ccc(Cl)c(Cl)c4)C3=O)CC2)=C(O)C1 (stereo not drawn),-1.47
8,CCOC(=O)N1CCC(N(CCN(C)C)C(=S)Nc2cc(Cl)cc(Cl)c2)CC1,8.64
9,CC(=O)NCCC(=O)NCC1(N(C)Cc2ccccc2)Cc2ccccc2C1,17.6
10,CC(COc1ccc(C(C)C)cc1)NC(=O)c1ccc(Br)o1 (stereo not drawn),5.58
11,Cc1c(CC(=O)NCC(=O)O)c(=O)oc2cc3c(cc12)CCC(C)(C)O3,9.94
12,CCCCNC(=O)C(=O)NCC1CCCN1S(=O)(=O)c1cccs1 (stereo not drawn),5.32
13,CC(C)C(C(=O)NCC1CCCO1)N(Cc1ccco1)C(=O)CNS(=O)(=O)c1ccc(F)cc1 (stereo not drawn),-6.77
14,CCOC(=O)N1CCN(C(=O)Nc2ccc3oc(C)nc3c2)CC1,10.9
15,N#Cc1cc([N+](=O)[O-])ccc1NC(=O)COC(=O)CCC1CCCCC1,15.8
16,COc1ccc(Nc2ccc(Nc3ccc(OC)cc3)nn2)cc1,13.9
17,N#Cc1ccc(NC(=O)Cn2cnc(S(=O)(=O)N3CCc4ccccc43)c2)cc1,8.39
18,COc1ccc(C2(C)NC(=O)N(Cc3cc(Cl)cc4c3OCOC4)C2=O)cc1OC (stereo not drawn),11.7
19,CCCCC(=O)NC(c1ccccc1OC)c1ccc2cccnc2c1O (stereo not drawn),-0.281
20,Cc1ccc(Oc2nc3ccccc3n3c(C)nnc23)cc1,14.5
21,CC(=O)Oc1ccccc1C(=O)Oc1ccc(/C=N/n2cnnc2)cc1,2.63
22,CC(Sc1n[nH]c(-c2ccccc2F)n1)C(=O)Nc1ccc(S(N)(=O)=O)cc1 (stereo not drawn),15.1

row,SMILES,"hERG current change (%, negative = inhibition) at 1uM [%]"
1,O=[N+]([O-])c1ccc2c(c1)S(=O)c1ccccc1-2 (stereo not drawn),13.9
2,O=C(NCC(=O)N(c1ccc(Cl)cc1)C(C(=O)NC1CCCC1)c1cccnc1)c1ccco1 (stereo not drawn),16.6
3,COc1ccc(/C=N/n2cnc3c(sc(=S)n3-c3ccccc3)c2=O)cc1,11.5
4,O=c1[nH]c(C2CCCN(S(=O)(=O)c3ccccc3)C2)nc2c1nnn2Cc1ccccc1 (stereo not drawn),6.49
5,CN1C(=O)C(CC(=O)NCCc2ccccc2)N(NC(=O)c2ccc(Cl)cc2)C1=S (stereo not drawn),9.39
6,Cc1occc1C(=O)N1CCN(c2ccc(Cl)c(Cl)c2)CC1,7.41
7,C/C(CC(=O)NCc1ccco1)=N\NC(=O)COc1ccc(C)cc1,4.8
8,CC(=O)N1CCN(S(=O)(=O)c2cccc(C(=O)NC3CCCc4ccccc43)c2)CC1 (stereo not drawn),5.03
9,CC1=C(C(=O)OCc2ccccc2)C(c2ccc3c(c2)OCO3)NC(=O)N1CCCC(=O)O (stereo not drawn),13.6
10,O=S1(=O)CCC(NC(=S)NCCNC(=S)NC2CCS(=O)(=O)C2)C1 (stereo not drawn),2.54
11,CN1CC2(Cc3c1ccc1ccccc31)C(=O)OC(C)(C)OC2=O,8.53
12,CC(C)C1/C(=N/O)CC(c2ccccc2)NC1c1ccccc1 (stereo not drawn),9.65
13,O=C(NCCCl)Nc1cccnc1Cl,11
14,CCOC(=O)c1ccc(NC(=S)N2CCN(CCN=CC3=C(O)CC(c4ccccc4)CC3=O)CC2)cc1 (stereo not drawn),8.25
15,COc1ccc(NC(=O)Nc2ccccc2F)cc1Cl,15
16,COc1cc(C(=S)N2CCC(Cc3ccccc3)CC2)ccc1OCC(N)=O,3.73
17,Cc1cc(C)cc(NC(=O)N2C3CCCC2CC(NC(=O)C2CC2)C3)c1 (stereo not drawn),11.3
18,Cc1ccc(S(=O)(=O)NC(=O)c2ccccc2C)cc1,17
19,COC(=O)c1ccc(Sc2ccccc2NS(=O)(=O)c2ccc(C)cc2)nc1,6.89
20,Cc1ccc(S(=O)(=O)N2CCCC2C(=O)NCc2ccc3c(c2)OCO3)cc1 (stereo not drawn),8.35
21,Cc1ccc(NC(=O)CN2C(=O)N/C(=C/c3ccc4c(c3)OCCO4)C2=O)cc1,14.8
